# According to the supplement of paper PMC12217912:
# This is one part of the list. Sequences were assembled here from the parent chain. Values near 0.05 are background.
# B1: TEV protease; numbered along this chain (parent)
# chain: MGESLFKGPRDYNPISSSICHLTNESDGHTTSLYGIGFGPFIITNKHLFRRNNGTLVVQSLHGVFKVKDTTTLQQHLVDGRDMIIIRMPKDFPPFPQKLKFREPQREERICLVTTNFQTKSMSSMVSDTSCTFPSGDGIFWKHWIQTKDGQCGSPLVSTRDGFIVGIHSASNFTNTNNYFTSVPKNFMELLTNQEAQQWVSGWRLNADSVLWGGHKVFMVKPEEPFQPVKEATQL
# Variants of: B1
# Test: raw area under fraction-flipped curve 0-4 h after induction (AUC4h, not background-subtracted), DNA-recorder readout of cleavage of the substrate (dimensionless); higher = more cleavage of the substrate by the protease variant
# Conditions: temperature: 34 °C; time window: 0-4 h after rhamnose induction
# Experimental: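 In vivo DNA recorder in E. coli TOP10(DE3) ΔrhaA at 34 °C. Each TEVp single-site mutant (parent TEVp 0) is paired with a single-site variant of the 7-mer TEVs (canonical ENLYFQ|S). The substrate sits between flexible linkers in a Bxb1-sfGFP-TEVs-SsrA fusion, so cleavage stabilises Bxb1 and speeds flipping of a recombination array, read by NGS. The value is the raw area under the fraction-flipped curve over 0-4 h after rhamnose induction (AUC4h), with ≥20 reads per time point. It is not background-subtracted; inactive controls average about 0.047.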
# 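Further: Bxb1 expression induced with 0.2% (w/v) L-rhamnose at OD600 near 0.5, cultures sampled hourly, flipped fraction per protease–substrate barcode pair counted by paired-end Illumina sequencing.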
variant,measurement,value
MGESLFKGPRDYNPISSSICHLTNESDGHTTSLYGIGFGPFIITNKHLFRRNNGTLVVQSLHGVFKVKDTTTLQQHLVDGRDMIIIRMPKDFPPFMQKLKFREPQREERICLVTTNFQTKSMSSMVSDTSCTFPSGDGIFWKHWIQTKDGQCGSPLVSTRDGFIVGIHSASNFTNTNNYFTSVPKNFMELLTNQEAQQWVSGWRLNADSVLWGGHKVFMVKPEEPFQPVKEATQL [P96M],area with substrate ECLYFQS,0.0921
same,area with substrate EDLYFQS,0.121
same,area with substrate EFLYFQS,0.0537
same,area with substrate EGLYFQS,0.0872
same,area with substrate EHLYFQS,0.113
same,area with substrate EILYFQS,0.117
same,area with substrate EKLYFQS,0.0983
same,area with substrate ELLYFQS,0.0934
same,area with substrate EMLYFQS,0.103
same,area with substrate ERLYFQS,0.0963
same,area with substrate ESLYFQS,0.077
same,area with substrate ETLYFQS,0.116
same,area with substrate EWLYFQS,0.0837
same,area with substrate EYLYFQS,0.0895
MGESLFKGPRDYNPISSSICHLTNESDGHTTSLYGIGFGPFIITNKHLFRRNNGTLVVQSLHGVFKVKDTTTLQQHLVDGRDMIIIRMPKDFPPFPQKLKFREFQREERICLVTTNFQTKSMSSMVSDTSCTFPSGDGIFWKHWIQTKDGQCGSPLVSTRDGFIVGIHSASNFTNTNNYFTSVPKNFMELLTNQEAQQWVSGWRLNADSVLWGGHKVFMVKPEEPFQPVKEATQL [P104F],area with substrate ECLYFQS,0.0555
same,area with substrate EELYFQS,0.0342
same,area with substrate EILYFQS,0.0499
same,area with substrate EMLYFQS,0.043
same,area with substrate EQLYFQS,0.0602
MGESLFKGPRDYNPISSSICHLTNESDGHTTSLYGIGFGPFIITNKHLFRRNNGTLVVQSLHGVFKVKDTTTLQQHLVDGRDMIIIRMPKDFPPFPQKLKFREIQREERICLVTTNFQTKSMSSMVSDTSCTFPSGDGIFWKHWIQTKDGQCGSPLVSTRDGFIVGIHSASNFTNTNNYFTSVPKNFMELLTNQEAQQWVSGWRLNADSVLWGGHKVFMVKPEEPFQPVKEATQL [P104I],area with substrate ECLYFQS,0.0616
same,area with substrate EDLYFQS,0.0822
same,area with substrate EELYFQS,0.0637
same,area with substrate EFLYFQS,0.068
same,area with substrate EGLYFQS,0.132
same,area with substrate EHLYFQS,0.068
same,area with substrate EILYFQS,0.0625
same,area with substrate EKLYFQS,0.058
same,area with substrate ELLYFQS,0.0806
same,area with substrate EMLYFQS,0.0778
same,area with substrate EPLYFQS,0.0684
same,area with substrate EQLYFQS,0.0601
same,area with substrate ERLYFQS,0.0727
same,area with substrate ESLYFQS,0.0663
same,area with substrate ETLYFQS,0.108
same,area with substrate EVLYFQS,0.0505
same,area with substrate EWLYFQS,0.0601
MGESLFKGPRDYNPISSSICHLTNESDGHTTSLYGIGFGPFIITNKHLFRRNNGTLVVQSLHGVFKVKDTTTLQQHLVDGRDMIIIRMPKDFPPFPQKLKFREPQREERICWVTTNFQTKSMSSMVSDTSCTFPSGDGIFWKHWIQTKDGQCGSPLVSTRDGFIVGIHSASNFTNTNNYFTSVPKNFMELLTNQEAQQWVSGWRLNADSVLWGGHKVFMVKPEEPFQPVKEATQL [L112W],area with substrate ECLYFQS,0.0819
same,area with substrate EDLYFQS,0.1
same,area with substrate EELYFQS,0.0769
same,area with substrate EGLYFQS,0.0588
same,area with substrate EILYFQS,0.057
same,area with substrate EKLYFQS,0.0655
same,area with substrate ELLYFQS,0.0755
same,area with substrate EMLYFQS,0.077
same,area with substrate EQLYFQS,0.0846
same,area with substrate ESLYFQS,0.0738
same,area with substrate EVLYFQS,0.087
same,area with substrate EWLYFQS,0.0635
MGESLFKGPRDYNPISSSICHLTNESDGHTTSLYGIGFGPFIITNKHLFRRNNGTLVVQSLHGVFKVKDTTTLQQHLVDGRDMIIIRMPKDFPPFPQKLKFREPQREERICLVTTNFQTGSMSSMVSDTSCTFPSGDGIFWKHWIQTKDGQCGSPLVSTRDGFIVGIHSASNFTNTNNYFTSVPKNFMELLTNQEAQQWVSGWRLNADSVLWGGHKVFMVKPEEPFQPVKEATQL [K120G],area with substrate ECLYFQS,0.0982
same,area with substrate ELLYFQS,0.0704
same,area with substrate EMLYFQS,0.121
same,area with substrate EPLYFQS,0.11
same,area with substrate ERLYFQS,0.0799
same,area with substrate ESLYFQS,0.0847
MGESLFKGPRDYNPISSSICHLTNESDGHTTSLYGIGFGPFIITNKHLFRRNNGTLVVQSLHGVFKVKDTTTLQQHLVDGRDMIIIRMPKDFPPFPQKLKFREPQREERICLVTTNFQTHSMSSMVSDTSCTFPSGDGIFWKHWIQTKDGQCGSPLVSTRDGFIVGIHSASNFTNTNNYFTSVPKNFMELLTNQEAQQWVSGWRLNADSVLWGGHKVFMVKPEEPFQPVKEATQL [K120H],area with substrate ECLYFQS,0.13
same,area with substrate EDLYFQS,0.134
same,area with substrate EELYFQS,0.152
same,area with substrate EFLYFQS,0.116
same,area with substrate EHLYFQS,0.12
same,area with substrate EILYFQS,0.0835
same,area with substrate EMLYFQS,0.186
same,area with substrate EQLYFQS,0.1
same,area with substrate ESLYFQS,0.107
same,area with substrate EVLYFQS,0.123
same,area with substrate EWLYFQS,0.0849
same,area with substrate EYLYFQS,0.128
MGESLFKGPRDYNPISSSICHLTNESDGHTTSLYGIGFGPFIITNKHLFRRNNGTLVVQSLHGVFKVKDTTTLQQHLVDGRDMIIIRMPKDFPPFPQKLKFREPQREERICLVTTNFQTWSMSSMVSDTSCTFPSGDGIFWKHWIQTKDGQCGSPLVSTRDGFIVGIHSASNFTNTNNYFTSVPKNFMELLTNQEAQQWVSGWRLNADSVLWGGHKVFMVKPEEPFQPVKEATQL [K120W],area with substrate ECLYFQS,0.101
same,area with substrate EFLYFQS,0.101
same,area with substrate EHLYFQS,0.112
same,area with substrate EILYFQS,0.137
same,area with substrate EKLYFQS,0.0912
same,area with substrate ELLYFQS,0.0861
same,area with substrate EMLYFQS,0.109
same,area with substrate EQLYFQS,0.138
same,area with substrate ESLYFQS,0.114
same,area with substrate ETLYFQS,0.118
same,area with substrate EWLYFQS,0.116
same,area with substrate EYLYFQS,0.0865
MGESLFKGPRDYNPISSSICHLTNESDGHTTSLYGIGFGPFIITNKHLFRRNNGTLVVQSLHGVFKVKDTTTLQQHLVDGRDMIIIRMPKDFPPFPQKLKFREPQREERICLVTTNFQTKSMSSMVSCTSCTFPSGDGIFWKHWIQTKDGQCGSPLVSTRDGFIVGIHSASNFTNTNNYFTSVPKNFMELLTNQEAQQWVSGWRLNADSVLWGGHKVFMVKPEEPFQPVKEATQL [D128C],area with substrate ECLYFQS,0.155
same,area with substrate EDLYFQS,0.153
same,area with substrate EELYFQS,0.113
same,area with substrate EFLYFQS,0.141
same,area with substrate EHLYFQS,0.156
same,area with substrate EILYFQS,0.101
same,area with substrate EKLYFQS,0.116
same,area with substrate ELLYFQS,0.142
same,area with substrate EPLYFQS,0.0537
same,area with substrate EQLYFQS,0.133
same,area with substrate ERLYFQS,0.121
same,area with substrate ESLYFQS,0.106
same,area with substrate ETLYFQS,0.152
same,area with substrate EVLYFQS,0.162
MGESLFKGPRDYNPISSSICHLTNESDGHTTSLYGIGFGPFIITNKHLFRRNNGTLVVQSLHGVFKVKDTTTLQQHLVDGRDMIIIRMPKDFPPFPQKLKFREPQREERICLVTTNFQTKSMSSMVSFTSCTFPSGDGIFWKHWIQTKDGQCGSPLVSTRDGFIVGIHSASNFTNTNNYFTSVPKNFMELLTNQEAQQWVSGWRLNADSVLWGGHKVFMVKPEEPFQPVKEATQL [D128F],area with substrate ECLYFQS,0.15
same,area with substrate EDLYFQS,0.157
same,area with substrate EHLYFQS,0.137
same,area with substrate EKLYFQS,0.179
same,area with substrate EQLYFQS,0.196
same,area with substrate ERLYFQS,0.181
same,area with substrate ESLYFQS,0.183
same,area with substrate EVLYFQS,0.127
same,area with substrate EWLYFQS,0.136
